Data reported in the BET-seq Pho4 binding data (Le et al. 2018).
The other results are listed elsewhere or left out. These are noisy estimates, calculated here from bound and input reads.

molecular target: T1, Pho4 (S. cerevisiae) (UniProt P07270); test: relative binding free energy (BET-seq); higher = weaker binding; settings: reference: library average
T1 sequence: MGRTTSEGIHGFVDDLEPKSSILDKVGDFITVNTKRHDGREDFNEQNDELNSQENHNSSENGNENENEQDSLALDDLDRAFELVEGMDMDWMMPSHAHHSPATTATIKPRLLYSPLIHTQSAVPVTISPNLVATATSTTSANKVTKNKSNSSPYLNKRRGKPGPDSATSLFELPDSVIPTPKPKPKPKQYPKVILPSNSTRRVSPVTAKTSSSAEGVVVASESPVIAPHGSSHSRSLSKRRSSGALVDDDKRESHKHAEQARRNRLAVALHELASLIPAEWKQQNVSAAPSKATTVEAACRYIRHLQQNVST

Sequence | relative binding free energy [kcal/mol]
CGTAGCACGTGGAGGA | -0.13
CAGTCCACGTGTGGTT | 0.07
TTGTTCACGTGAACTT | 0.55
AATCGCACGTGTGGTT | 0.11
AGGTTCACGTGAGTGG | 0.38
ATGCTCACGTGGCGGG | 0.1
CAGCGCACGTGGGGGG | -0.21
CGTGGCACGTGTGGGC | -0.09
GTGAGCACGTGTTGTC | -0.15
TGCTGCACGTGTGAGT | -0.01
GGTGACACGTGGAATG | 0.04
TTTAGCACGTGATTCT | 0.06
CAGTGCACGTGATAGG | -0.07
AGGGTCACGTGGCACT | 0.05
AATGTCACGTGAGGCA | 0.27
ATGGGCACGTGTATAG | -0.11
TCGGTCACGTGCATGG | 0.09
GTTAACACGTGGGCGG | -0.16
GTAGTCACGTGACTGG | 0.33
AAGGTCACGTGAGTAT | 0.25
AGGGGCACGTGAGCGA | -0.05
TTTTCCACGTGTTAGG | 0.17
TGTGACACGTGACGGA | 0.09

Sequence | relative binding free energy [kcal/mol]
AAGCGCACGTGGGGGG | -0.19
CGTGGCACGTGCTGTT | -0.21
GAGCGCACGTGGGGCT | -0.23
GTGGTCACGTGTTGAT | 0.12
TGGGGCACGTGTACTG | -0.07
TTAATCACGTGGGACT | -0.06
CGGATCACGTGTTATT | 0.1
TGATGCACGTGTATGC | 0.04
GTCGGCACGTGAGGGC | 0.33
AGGAGCACGTGGCCGG | -0.22
AACGTCACGTGTGGAT | 0.06
TCAGACACGTGGGGTG | -0.14
CTTTGCACGTGTACGT | 0.03
GTGCGCACGTGGGCGC | -0.03
TGAGTCACGTGTAACG | 0.29
TATTACACGTGAATGA | 0.36
TAGAACACGTGGATTG | 0.03
GGGAACACGTGGTAAT | 0.18
TACTTCACGTGTGATG | 0.28
CGGTCCACGTGTGTTG | -0.04
TGGGGCACGTGCATTT | -0.14
GTGTTCACGTGAGCTG | 0.41
GTTATCACGTGAAGTT | 0.3

Sequence | relative binding free energy [kcal/mol]
TAGTTCACGTGAAGAG | 0.2
TGTGACACGTGTAAAG | 0.04
TATAGCACGTGAGGGT | 0.21
GGATGCACGTGTGTGC | 0.08
TAGGGCACGTGAGTCT | 0.1
CTGGGCACGTGCGGTT | -0.04
AGTCGCACGTGGGCGT | -0.15
ATTTACACGTGATAGT | 0.17
GGGGACACGTGAGTCA | 0.24
GGGGGCACGTGGGTGC | -0.25
CTATGCACGTGAAGGT | 0.11
TGTTGCACGTGAGAAT | 0.22
CTTTGCACGTGTCGTA | 0.18
TGAATCACGTGTGAAT | 0.15
TGTTTCACGTGTCACG | 0.23
ATTCACACGTGTAATG | 0.18
GATTCCACGTGGTTAT | 0.17
GTATTCACGTGGTAAA | 0.13
TGACACACGTGGTGTA | -0.17
GTTGTCACGTGAGTCG | 0.34
ATAACCACGTGTTGGG | 0
GTAGTCACGTGTCATT | 0.14
TTATTCACGTGCATTA | 0.32

Sequence | relative binding free energy [kcal/mol]
AGTGTCACGTGGGATA | -0.03
TGTAACACGTGGAGGG | -0.1
GGTAGCACGTGGCTGG | -0.02
GGGCGCACGTGTATGG | 0.01
TAAACCACGTGTGGGG | 0.05
AATATCACGTGGGAGT | 0.09
ATATGCACGTGTTAAT | 0.02
TTGTTCACGTGGGGCC | 0.26
TCATTCACGTGGATGT | 0.19
GTATTCACGTGAGGTG | 0.36
CAGTGCACGTGTATGA | 0.14
AGTCTCACGTGCTAGG | 0.25
CAATTCACGTGTGGTG | 0.27
GGTAGCACGTGTAACG | 0.04
ATAATCACGTGCGGTT | 0.21
ATTGACACGTGTGAGA | 0.15
CTTTTCACGTGGCGTT | 0.27
GGTTACACGTGGTACT | 0.21
TGTTTCACGTGCGGTT | 0.33
TGAAGCACGTGGATTA | -0.07
CGGGTCACGTGTCGGC | 0.16
TTGGTCACGTGAGCTT | 0.37
GTCAGCACGTGGGGCT | -0.2

Sequence | relative binding free energy [kcal/mol]
GCGTTCACGTGATAGG | 0.36
TGTCTCACGTGAATTG | 0.38
TGTGCCACGTGTGGAC | 0.07
GGGGGCACGTGCTCTT | -0.11
TATCGCACGTGGTGAT | -0.12
TCGGTCACGTGGGCGA | -0.06
TATAGCACGTGTTAGG | -0.17
ATGATCACGTGGCGGG | 0
GGCTGCACGTGAGTAG | 0.2
TGTAGCACGTGGGAGG | -0.11
CGGTACACGTGAGTGT | 0.14
CTTGGCACGTGGAGGT | -0.03
CTGATCACGTGAGGGT | 0.21
CTTTGCACGTGCGGGC | 0.17
CAGTGCACGTGAGAGT | 0.35
TATGTCACGTGTGATG | 0.15
CGAGTCACGTGTGGTT | 0.11
TTAATCACGTGACTGA | 0.43
ATCGTCACGTGAGTGT | 0.06
TTACTCACGTGAATGG | 0.51
GGCTTCACGTGCGGTT | 0.34
TTTTACACGTGGGTAG | -0.08
AAGGGCACGTGGGCAG | -0.35
